Measured values: publication PMC3390797, “Regulation of ASIC channels by a stomatin/STOML3 complex located in a mobile vesicle pool in sensory neurons” (Open Biology, 2012)
Substitutions are numbered along the chain they refer to. Where two headings read alike, the source gives them in different places. Results are given in words; binding and its absence hold for the method and conditions named. In cells and extracts the contact can be indirect. Some binding calls cover weakened binding; strength is not graded here. Where a sequence is shown, tags or fusion partners need not be part of it. Each block holds one molecule with its values, some of them ahead of it.

Amino acid sequences for entries named in this document (tags omitted). A change or cut given only in a name is not applied to a line headed by its entry. Chains listed by the source or under a name are the forms on record and can include a tag or linker.
Flag-tagged ASIC2b (Q62962-2, form named): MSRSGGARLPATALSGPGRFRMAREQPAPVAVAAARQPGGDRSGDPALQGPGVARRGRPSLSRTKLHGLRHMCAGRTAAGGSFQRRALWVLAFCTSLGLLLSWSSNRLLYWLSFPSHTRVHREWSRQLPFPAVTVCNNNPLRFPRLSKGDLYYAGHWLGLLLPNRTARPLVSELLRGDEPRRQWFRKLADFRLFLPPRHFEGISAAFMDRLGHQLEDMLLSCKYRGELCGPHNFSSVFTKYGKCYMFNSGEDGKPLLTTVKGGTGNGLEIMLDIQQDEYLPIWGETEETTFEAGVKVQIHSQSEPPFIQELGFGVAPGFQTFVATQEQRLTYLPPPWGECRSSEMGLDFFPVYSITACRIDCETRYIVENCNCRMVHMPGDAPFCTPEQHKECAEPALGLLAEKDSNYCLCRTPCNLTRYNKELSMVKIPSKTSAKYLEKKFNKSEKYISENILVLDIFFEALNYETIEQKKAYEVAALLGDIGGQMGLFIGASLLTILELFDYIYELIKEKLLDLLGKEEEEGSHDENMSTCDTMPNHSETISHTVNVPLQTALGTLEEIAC

Assays:
[1] = molecular target: T1, Strep-tagged STOML3-AmCyan1 (stomatin-like protein-3, wild type) (mouse) (UniProt Q6PE84); experiment: co-IP; CHO cells transiently transfected with STOML3-Strep and ASICx-Flag or stomatin-Myc (1:1), 48 h; lysed in RIPA buffer (50 mM Tris pH 7.4, 300 mM NaCl, 1 mM EDTA, 0.5% deoxycholic acid, 0.5% Triton-X100, 0.1% SDS, 1 mM DTT); anti-Strep antibody and Protein G agarose overnight; blot with anti-Flag or anti-Myc
T1 sequence: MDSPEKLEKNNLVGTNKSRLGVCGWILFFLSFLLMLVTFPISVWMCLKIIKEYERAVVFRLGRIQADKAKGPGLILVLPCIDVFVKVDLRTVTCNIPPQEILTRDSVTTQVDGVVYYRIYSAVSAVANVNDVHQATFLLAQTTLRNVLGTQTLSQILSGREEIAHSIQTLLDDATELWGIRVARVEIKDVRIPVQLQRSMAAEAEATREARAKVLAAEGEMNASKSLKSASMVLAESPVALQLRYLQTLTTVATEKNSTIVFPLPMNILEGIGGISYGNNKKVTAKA

[2] = molecular target: T2, STOML3Δ1–50 (Strep-tagged, CFP-tagged) (mouse) (UniProt Q6PE84); experiment: as above
T2 sequence: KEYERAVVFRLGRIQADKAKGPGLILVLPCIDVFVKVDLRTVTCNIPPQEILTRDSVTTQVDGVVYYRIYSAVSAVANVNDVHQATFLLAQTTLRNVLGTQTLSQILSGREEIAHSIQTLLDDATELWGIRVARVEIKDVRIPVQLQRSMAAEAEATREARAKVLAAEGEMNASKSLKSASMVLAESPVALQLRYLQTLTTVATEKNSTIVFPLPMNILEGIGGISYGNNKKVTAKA

[3] = molecular target: T3, STOML3-Δ1–128 (Strep-tagged, CFP-tagged) (mouse) (UniProt Q6PE84); experiment: as above
T3 sequence: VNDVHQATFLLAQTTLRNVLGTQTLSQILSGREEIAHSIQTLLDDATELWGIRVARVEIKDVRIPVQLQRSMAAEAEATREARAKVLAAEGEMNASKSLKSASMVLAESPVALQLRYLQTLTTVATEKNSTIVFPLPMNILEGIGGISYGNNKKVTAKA

[4] = molecular target: T4, P40S STOML3 mutant protein (Strep-tagged, CFP-tagged) (mouse) (UniProt Q6PE84); experiment: as above
T4 sequence: T1 sequence with P40S

[5] = molecular target: T1, Strep-tagged STOML3-AmCyan1 (stomatin-like protein-3, wild type) (mouse); experiment: as above; remark: listed apart in the source
[6] = molecular target: T5, STOML3 fused to the N-terminal fragment of YFP (Venus) for BiFC (mouse) (UniProt Q6PE84); experiment: split reporter; BiFC with Venus fragments VN173 and VC155; CHO cells transiently transfected with two plasmids, 24 h, fixed with 4 per cent PFA, epifluorescence
T5 sequence: T1 sequence

[7] = molecular target: stomatin fused to a fragment of YFP (Venus) for BiFC (mouse) (UniProt P54116); experiment: as above

binding [1]: binds
Molecule: Flag-tagged ASIC2b (from UniProt Q62962-2 1-563)

binding [1]: binds
binding [2]: no binding
binding [3]: no binding
binding [4]: binds
Molecule: Flag-tagged ASIC2a (from UniProt Q62962-1 1-512)

binding [6]: binds
binding [7]: binds
B2: stomatin fused to a fragment of YFP (Venus) for BiFC (protein, UniProt P54116 1-284)
chain: MSDKRQSSHVQSQRIPESFRENSKTELGACGWILVAASFFFVIITFPISIWICIKIVKEYERVIIFRLGRILQGGAKGPGLFFILPCTDSLIKVDMRTISFDIPPQEVLTKDSVTISVDGVVYYRVQNATLAVANITNADSATRLLAQTTLRNALGTKNLSQILSDREEIAHHMQSTLDDATDDWGIKVERVEIKDVKLPVQLQRAMAAEAEAAREARAKVIAAEGEMNASRALKEASMVITESPAALQLRYLQTLTTIAAEKNSTIVFPLPVDMLQGIMGSNH

Further lines, the molecule ahead of its results:

B1: EYFP-tagged ASIC1b (natural protein, mouse, UniProt Q6NXK8-2 1-559, looked up)
chain: MPIQIFCSVSFSSGEEAPGSMGDIWGPHHHHRQQQDSSESEEEEEKEKESGMELDEGDSPRDLVAFANSCTLHGASHVFVEGGPGPRQALWAVAFVIALGAFLCQVGDRVAYYLSYPHVTLLDEVATTELVFPAVTFCNTNAVRLSQLSYPDLLYLAPMLGLDESDDPGVPLAPPGPEAFSGEPFNLHRFYNRSCHRLEDMLLYCSYCGGPCGPHNFSVVFTRYGKCYTFNSGQDGRPRLKTMKGGTGNGLEIMLDIQQDEYLPVWGETDETSFEAGIKVQIHSQDEPPFIDQLGFGVAPGFQTFVSCQEQRLIYLPSPWGTCNAVTMDSDFFDSYSITACRIDCETRYLVENCNCRMVHMPGDAPYCTPEQYKECADPALDFLVEKDQEYCVCEMPCNLTRYGKELSMVKIPSKASAKYLAKKFNKSEQYIGENILVLDIFFEVLNYETIEQKKAYEIAGLLGDIGGQMGLFIGASILTVLELFDYAYEVIKHRLCRRGKCQKEAKRNSADKGVALSLDDVKRHNPCESLRGHPAGMTYAANILPHHPARGTFEDFTC
notes: source: CHO cells, transiently transfected, in live cells
binding [5]: binds

B3: EYFP-tagged ASIC1a (natural protein, mouse, UniProt Q6NXK8-1 1-526, looked up)
chain: MELKTEEEEVGGVQPVSIQAFASSSTLHGLAHIFSYERLSLKRALWALCFLGSLAVLLCVCTERVQYYFCYHHVTKLDEVAASQLTFPAVTLCNLNEFRFSQVSKNDLYHAGELLALLNNRYEIPDTQMADEKQLEILQDKANFRSFKPKPFNMREFYDRAGHDIRDMLLSCHFRGEACSAEDFKVVFTRYGKCYTFNSGQDGRPRLKTMKGGTGNGLEIMLDIQQDEYLPVWGETDETSFEAGIKVQIHSQDEPPFIDQLGFGVAPGFQTFVSCQEQRLIYLPSPWGTCNAVTMDSDFFDSYSITACRIDCETRYLVENCNCRMVHMPGDAPYCTPEQYKECADPALDFLVEKDQEYCVCEMPCNLTRYGKELSMVKIPSKASAKYLAKKFNKSEQYIGENILVLDIFFEVLNYETIEQKKAYEIAGLLGDIGGQMGLFIGASILTVLELFDYAYEVIKHRLCRRGKCQKEAKRNSADKGVALSLDDVKRHNPCESLRGHPAGMTYAANILPHHPARGTFEDFTC
notes: as for B1
binding [5]: binds

B4: EYFP-tagged ASIC4 (natural protein, mouse, UniProt Q7TNS7 1-539, looked up)
chain: MPIEIVCKIKFAEEDAKPKEKEAGDEQSLLGAAQGPAAPRDLATFASTSTLHGLGRACGPGPHGLRRTLWALALLTSLAAFLYQAASLARGYLTRPHLVAMDPAAPAPVAGFPAVTLCNINRFRHSALSDADIFHLANLTGLPPKDRDGHRAAGLRYPEPDMVDILNRTGHQLADMLKSCNFSGHHCSASNFSVVYTRYGKCYTFNADPQSSLPSRAGGMGSGLEIMLDIQQEEYLPIWRETNETSFEAGIRVQIHSQEEPPYIHQLGFGVSPGFQTFVSCQEQRLTYLPQPWGNCRAESELREPELQGYSAYSVSACRLRCEKEAVLQRCHCRMVHMPGNETICPPNIYIECADHTLDSLGGGSEGPCFCPTPCNLTRYGKEISMVKIPNRGSARYLARKYNRNETYIRENFLVLDVFFEALTSEAMEQQAAYGLSALLGDLGGQMGLFIGASILTLLEILDYIYEVSWDRLKRVWRRPKTPLRTSTGGISTLGLQELKEQSPCPSRGRAEGGGASSLLPNHHHPHGPPGSLFEDFAC
notes: as for B1
binding [5]: binds

B5: EYFP-tagged ASIC3 (natural protein, rat, UniProt O35240 1-533, looked up)
chain: MKPRSGLEEAQRRQASDIRVFASSCTMHGLGHIFGPGGLTLRRGLWATAVLLSLAAFLYQVAERVRYYGEFHHKTTLDERESHQLTFPAVTLCNINPLRRSRLTPNDLHWAGTALLGLDPAEHAAYLRALGQPPAPPGFMPSPTFDMAQLYARAGHSLEDMLLDCRYRGQPCGPENFTVIFTRMGQCYTFNSGAHGAELLTTPKGGAGNGLEIMLDVQQEEYLPIWKDMEETPFEVGIRVQIHSQDEPPAIDQLGFGAAPGHQTFVSCQQQQLSFLPPPWGDCNTASLDPDDFDPEPSDPLGSPRPRPSPPYSLIGCRLACESRYVARKCGCRMMHMPGNSPVCSPQQYKDCASPALDAMLRKDTCVCPNPCATTRYAKELSMVRIPSRASARYLARKYNRSESYITENVLVLDIFFEALNYEAVEQKAAYEVSELLGDIGGQMGLFIGASLLTILEILDYLCEVFQDRVLGYFWNRRSAQKRSGNTLLQEELNGHRTHVPHLSLGPRPPTTPCAVTKTLSASHRTCYLVTRL
notes: as for B1
binding [5]: binds
